Results are given in words; binding and its absence hold for the method and conditions named. For some assays here: In cells and extracts the contact can be indirect. Some binding calls cover weakened binding; strength is not graded here. For some assays here: Sequences can lack the tags named with a protein.
T1: T25-AtcA (Shewanella oneidensis MR-1) (UniProt Q8EFW6)
T1 sequence: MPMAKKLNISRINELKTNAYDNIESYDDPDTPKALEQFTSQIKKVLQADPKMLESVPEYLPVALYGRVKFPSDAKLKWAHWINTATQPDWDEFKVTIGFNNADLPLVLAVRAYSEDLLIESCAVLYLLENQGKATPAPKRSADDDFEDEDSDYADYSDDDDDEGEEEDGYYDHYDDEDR

T2: T25-AtcC (Shewanella oneidensis MR-1) (UniProt Q8EFW9)
T2 sequence: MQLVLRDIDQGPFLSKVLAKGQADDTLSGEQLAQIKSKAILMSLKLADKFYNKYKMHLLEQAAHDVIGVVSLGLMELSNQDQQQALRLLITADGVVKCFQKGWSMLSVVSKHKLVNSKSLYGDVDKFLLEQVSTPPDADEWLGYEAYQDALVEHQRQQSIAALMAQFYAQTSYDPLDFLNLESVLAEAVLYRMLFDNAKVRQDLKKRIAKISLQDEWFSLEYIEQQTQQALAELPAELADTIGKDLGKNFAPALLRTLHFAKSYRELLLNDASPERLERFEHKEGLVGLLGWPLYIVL

T3: T25-AtcB (Shewanella oneidensis MR-1) (UniProt Q8EFW7)
T3 sequence: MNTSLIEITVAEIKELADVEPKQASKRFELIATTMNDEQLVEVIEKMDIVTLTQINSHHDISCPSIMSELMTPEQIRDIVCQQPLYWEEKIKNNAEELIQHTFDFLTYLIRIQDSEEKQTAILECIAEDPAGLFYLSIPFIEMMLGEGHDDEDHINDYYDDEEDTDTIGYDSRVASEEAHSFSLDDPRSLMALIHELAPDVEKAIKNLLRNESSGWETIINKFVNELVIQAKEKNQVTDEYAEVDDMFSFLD

T4: Strep-HtpG (Shewanella oneidensis MR-1) (UniProt Q8EFF7)
T4 sequence: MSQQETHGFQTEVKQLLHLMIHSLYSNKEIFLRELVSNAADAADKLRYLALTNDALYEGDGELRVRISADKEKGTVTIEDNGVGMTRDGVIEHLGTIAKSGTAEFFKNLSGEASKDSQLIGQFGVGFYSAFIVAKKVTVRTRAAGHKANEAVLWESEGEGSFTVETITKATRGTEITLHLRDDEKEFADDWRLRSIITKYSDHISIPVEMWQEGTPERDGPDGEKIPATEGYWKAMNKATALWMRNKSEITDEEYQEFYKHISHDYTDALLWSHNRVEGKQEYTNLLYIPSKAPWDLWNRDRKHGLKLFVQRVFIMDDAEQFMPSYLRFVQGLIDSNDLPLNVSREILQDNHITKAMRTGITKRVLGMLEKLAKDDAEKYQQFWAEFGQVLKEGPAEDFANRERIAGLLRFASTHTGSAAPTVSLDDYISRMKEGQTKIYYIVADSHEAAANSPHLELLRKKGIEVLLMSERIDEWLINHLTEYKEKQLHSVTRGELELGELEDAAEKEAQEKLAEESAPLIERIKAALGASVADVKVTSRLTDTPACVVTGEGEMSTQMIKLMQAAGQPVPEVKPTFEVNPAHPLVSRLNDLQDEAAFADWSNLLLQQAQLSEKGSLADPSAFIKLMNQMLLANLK

T5: CBP-AtcB (Shewanella oneidensis MR-1) (UniProt Q8EFW7)
T5 sequence: T3 sequence

T6: AtcC-6His (SO_1846) (Shewanella oneidensis MR-1, UniProt Q8EFW9 1-298)
T6 construct: AtcC (SO_1846) of Shewanella oneidensis MR-1, 34 kDa; pBad33-AtcC was made by moving the insert of pET-AtcC, so both give AtcC with a C-terminal 6-His tag; also called AtcC with a 6His-tag; not shown: His6, C-terminal, kept
T6 sequence (looked up): T2 sequence

B1: AtcJ-6His (Adaptation to cold protein J, SO_1850) (natural protein, Shewanella oneidensis MR-1, UniProt Q8EFW5 1-94, looked up)
chain: MINHFSVLGIKPSAKEDDIKKAYRRLSNKYHPDKLLGASDEEKEQASQQLERVKKAYEVLSDPKLRNAFIRDFNNVIVTDPNSAMRELWDQFYP
notes: AtcJ (SO_1850) of Shewanella oneidensis MR-1, a 94-amino acid J-domain protein (J-domain 1-73 and a C-terminal extension of 21 amino acids); also called wild-type AtcJ; AtcJ-WT
B2: pep21, synthetic peptide corresponding to the last 21 amino acids of AtcJ (peptide)
peptide: NNVIVTDPNSAMRELWDQFYP
notes: last 21 amino acids of AtcJ (SO_1850) of Shewanella oneidensis (94 amino acids; N74 is the first residue of the extension); The methods sentence says 'last 21 amino acids of AtcC'; results and legends say AtcJ; also called the peptide
B3: T18-AtcC (protein, UniProt Q8EFW9 1-298)
chain: T2 sequence
B4: AtcC-6His (SO_1846) (protein, UniProt Q8EFW9 1-298)
chain: T2 sequence
B5: T18-AtcJΔC (domain or fragment, UniProt Q8EFW5 1-73)
chain: MINHFSVLGIKPSAKEDDIKKAYRRLSNKYHPDKLLGASDEEKEQASQQLERVKKAYEVLSDPKLRNAFIRDF
B6: Strep-AtcB (natural protein, Shewanella oneidensis MR-1, UniProt Q8EFW7 1-252, looked up)
chain: T3 sequence
notes: AtcB (SO_1848) of Shewanella oneidensis MR-1, 29 kDa; also called AtcB with a Strep-tag; purified AtcB
B7: AtcJΔC (AtcJ lacking the last 21 amino acids), purified (domain or fragment, UniProt Q8EFW5 1-73)
chain: B5 chain

Tests used:
[1] = target: T1, T25-AtcA (Shewanella oneidensis MR-1); assay: two-hybrid
[2] = target: T2, T25-AtcC (Shewanella oneidensis MR-1); assay: two-hybrid
[3] = target: T3, T25-AtcB (Shewanella oneidensis MR-1); assay: two-hybrid
[4] = target: T4, Strep-HtpG (Shewanella oneidensis MR-1); assay: pull-down; both purified
[5] = target: T5, CBP-AtcB (Shewanella oneidensis MR-1); assay: pull-down
AtcC-6His (SO_1846) = target: T6, AtcC-6His (SO_1846); assay: ITC; 25 °C, buffer B (50 mM Tris-HCl, 100 mM KCl, 10% glycerol, 1 mM DTT); 285 µM ligand titrated into 36 µM AtcC in the cell; one set of sites model; both purified

Binder | binding [1] | binding [2] | further results
B1 | no binding | binds | binding [3]: no binding
B2 |  | binds | 
B3 | no binding |  | binding [3]: binds
B4 |  |  | binding [4]: no binding; binding [5]: binds
B5 |  | no binding | 
B6 | no binding |  | 
B7 |  |  | binding (AtcC-6His (SO_1846)): no binding (tested: 285 µM AtcJΔC titrated into 36 µM AtcC)

Reference: article PMC6715715 (Communications Biology, 2019)
